According to PubChem BioAssay AID624417 (National Center for Advancing Translational Sciences (NCATS), 2012):
Hit rate of the full screen: of about 410,000 compounds, about 6,400 (1.6%) were called active. The inconclusive results got no clear call from the source; some entries with a clear call stand among them for comparison. Calls come from the whole dose curve; as a rule, active = well fitted inhibition curve with a large enough effect; inconclusive = small, poorly fitted or top-dose-only effect; inactive = no such curve, though single readings can be large or run the other way. Potencies beside an inconclusive call are fits to weak or partial responses and may not hold up.

What follows are compounds tested against Glucagon-like peptide 1 receptor (Homo sapiens) (UniProt P43220) (assay: qHTS of GLP-1 Receptor Inverse Agonists (Inhibition Mode)). Details: HEK293 GLP-1R CRE-luciferase, luminescence, 24 h, GLP-1R form is constitutively active; activity change, negative = inhibition: at 38.3 µM (top of the series) unless noted.
UniProt P43220, sequence (P43220 whole entry, looked up): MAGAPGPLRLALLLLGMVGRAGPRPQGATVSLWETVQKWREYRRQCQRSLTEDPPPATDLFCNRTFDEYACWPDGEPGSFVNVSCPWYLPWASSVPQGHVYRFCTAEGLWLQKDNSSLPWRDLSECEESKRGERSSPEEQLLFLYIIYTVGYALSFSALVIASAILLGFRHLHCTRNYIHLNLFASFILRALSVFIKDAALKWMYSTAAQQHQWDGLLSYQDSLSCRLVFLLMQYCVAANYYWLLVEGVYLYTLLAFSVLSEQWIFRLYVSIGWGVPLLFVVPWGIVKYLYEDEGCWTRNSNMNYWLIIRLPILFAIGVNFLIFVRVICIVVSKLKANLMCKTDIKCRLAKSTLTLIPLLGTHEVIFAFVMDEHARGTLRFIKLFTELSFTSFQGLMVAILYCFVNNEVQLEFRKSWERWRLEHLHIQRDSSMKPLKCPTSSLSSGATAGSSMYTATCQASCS
How it was run: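 HEK293 cells stably co-expressing constitutively active GLP-1R and a cAMP-responsive luciferase reporter were seeded in DMEM with 10% Nu serum, given compounds after 12 h, and incubated 24 h at 37 deg C. Luminescence was then read.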
% is set by controls: 0 for no effect and ±100 for the full control effect; potency is the fitted concentration of half-maximal effect; tags give direction and shape of the fitted curve.
Note: nearly all actives have a fitted effect of over 55% in size.

| SMILES | Potency | activity change, negative = inhibition |
| --- | --- | --- |
| Cc1ccccc1NC(=O)Cc1nc(COC(=O)c2ccc(S(C)(=O)=O)c([N+](=O)[O-])c2)cs1 | inconclusive: 28.2 µM [inhibitor, single point] |  |
| C[C@H](NC(=O)c1nc[nH]c1C(=O)N[C@@H](Cc1ccccc1)C(=O)OC(C)(C)C)c1ccccc1 | inconclusive: 10 µM [inhibitor, partial curve, poor fit] |  |
| CC(=O)/C(=N\Nc1ccccc1Cl)Sc1cccc2cccnc12 | inconclusive: 10 µM [inhibitor, partial curve, poor fit] |  |
| CCn1cc(C2=NC(C(C)C)CO2)c2ccccc21 (stereo not given) | inconclusive: 28.2 µM [inhibitor, single point] |  |
| Cc1ccc(NC(=O)CCCc2nc(-c3ccco3)no2)cc1Cl | inconclusive: 12.6 µM [inhibitor, single point] |  |
| COCc1cc(C)nc(SCc2ccccc2Cl)c1C#N | inconclusive: 22.4 µM [inhibitor, single point] |  |
| CC(C)C(N)c1csc(NC(=O)Nc2ccccc2C(C)(C)C)n1 (stereo not given) | inconclusive: 28.2 µM [inhibitor, single point] |  |
| COc1ccc(CNC(=O)c2c(O)c3cc(OC)c(OC)cc3[nH]c2=O)cc1OC |  | inactive: 46% |
| CN1C(=O)C(O)(CC(=O)/C=C\c2ccc3c(c2)OCO3)c2ccccc21 (stereo not given) | inconclusive: 10 µM [inhibitor, partial curve] |  |
| Cc1cc(C(=O)N2CCCc3ccccc32)ccc1[N+](=O)[O-] | inconclusive: 22.4 µM [inhibitor, single point] |  |
| O=C(COc1ccc2c(c1)C(=O)CC1(CCCCC1)O2)NCc1ccccn1 |  | inactive: 0% |
| CCN(C(=O)c1ccc2c(Cl)c3c(nc2c1)CCC3)c1ccc(C)c(C)c1 | inconclusive: 10 µM [inhibitor, partial curve, poor fit] |  |
| COc1ccc(-n2c(SCC(=O)NCc3ccc(Cl)cc3)nc3ccsc3c2=O)cc1 |  | inactive: 2.14% |
| COc1ccc(OC)c(S(=O)(=O)NCC(c2cccs2)N2CCc3ccccc3C2)c1 (stereo not given) | inconclusive: 14.1 µM [inhibitor, partial curve, poor fit] |  |
| O=C(c1ccc(OC2CCN(Cc3ccccc3OC(F)F)CC2)cc1)N1CCCC1 | active: 3.16 µM |  |
| CCOC(=O)c1cccc(NS(=O)(=O)c2c(C)[nH]c(=O)[nH]c2=O)c1 |  | inactive: -1.03% |
| C/C(=N\NC(=S)NCCc1ccccc1)c1ccc(O)cc1O | inconclusive: 28.2 µM [inhibitor, single point] |  |
| CCOC(=O)c1sc2ccccc2c1S(=O)(=O)NCc1ccccc1OC | inconclusive: 28.2 µM [inhibitor, single point] |  |
| O=C(c1ccccc1)c1ccccc1N/C=C/c1nnnn1-c1ccccc1 | inconclusive: 5.62 µM [inhibitor, partial curve, poor fit] |  |
| COc1ccc(CCNCc2cc(C)n(-c3ccc(OC)cc3)c2C)cc1 | inconclusive: 3.98 µM [inhibitor, partial curve] |  |
| CCOC(=O)c1cnn(-c2nc(-c3ccc(F)cc3)cs2)c1C(F)(F)F |  | inactive: 0% |
| O=C(COc1ccc(F)cc1)N(Cc1cccc(Br)c1)C1CCS(=O)(=O)C1 (stereo not given) | inconclusive: 10 µM [inhibitor, partial curve, poor fit] |  |

| SMILES | Potency | activity change, negative = inhibition |
| --- | --- | --- |
| CCN(CC(=O)NCc1ccc(F)cc1)CC(=O)Nc1ccc(Br)cc1F | inconclusive: 20 µM [inhibitor, single point] |  |
| COc1cccc(C(C)(O)c2nc(-c3ccc(F)cc3OC)cs2)c1 (stereo not given) | inconclusive: 28.2 µM [inhibitor, single point] |  |
| O=C(O)c1ccc(N/N=C/c2ccc3c(c2)OCO3)cc1 | inconclusive: 1.78 µM [inhibitor, full curve, poor fit] |  |
| COc1ccc(N=C2SCC(=O)N2Cc2ccccc2)cc1 | inconclusive: 15.8 µM [inhibitor, partial curve, poor fit] |  |
| O=S(=O)(c1ccc(Cl)cc1)c1nc(-c2cccs2)oc1N1CCCCC1 |  | inactive: 5.94% |
| CCc1cc2c(cc3c(=O)n(CC(=O)NC(C)c4ccccc4)ncn32)s1 (stereo not given) |  | inactive: 19.9% |
| COc1ccccc1CNC(=O)Cc1csc2nc(-c3ccc(F)cc3)cn12 | inconclusive: 28.2 µM [inhibitor, single point] |  |
| O=C(NC(c1ccc(F)cc1)c1ccc2ccccc2n1)C1CCN(CCOc2ccc(F)cc2)CC1 (stereo not given) | inconclusive: 12.6 µM [inhibitor, partial curve, poor fit] |  |
| C#CCN(C[C@@H]1[C@@H](OC(=O)NCCCCCC)[C@@H](OC(=O)NCCCCCC)Cn2c(=O)ccc(=O)n21)S(=O)(=O)c1ccc(C)cc1 | inconclusive: 1 µM [inhibitor, full curve, poor fit] |  |
| CCS(=O)(=O)c1ccc(O)c(NC(=O)c2cc(-c3ccccn3)nc3ccccc23)c1 |  | inactive: 10.2% |
| C=CC(=O)NN(C)c1ncc(C(F)(F)F)cc1Cl | inconclusive: 28.2 µM [inhibitor, single point] |  |
| O=C(Nc1cccc2c1CCCC2)c1cc(C2CCCCN2S(=O)(=O)c2cccs2)on1 (stereo not given) | inconclusive: 10 µM [inhibitor, partial curve] |  |
| NC(=O)N/N=C/c1c(Sc2nnnn2-c2ccccc2)nc2ccccn2c1=O | inconclusive: 12.6 µM [inhibitor, single point] |  |
| COc1cc2c(c(OC)c1OC)-c1ccc(NC(=O)c3ccc(F)cc3)c(=O)cc1[C@@H](NC(C)=O)CC2 | inconclusive: 10 µM [inhibitor, single point] |  |
| O=C(Nc1ccc(N2CCCC2)c(Cl)c1)c1ccc(Br)o1 | inconclusive: 10 µM [inhibitor, single point] |  |
| COc1ccc(S(=O)(=O)Nc2ccc3c(c2)C(=O)N([C@H](C)CO)C[C@@H](C)[C@@H](CN(C)S(=O)(=O)c2ccc(Cl)cc2)O3)cc1 | inconclusive: 28.2 µM [inhibitor, single point] |  |
| CCOC(=O)c1cnc2c(ccc3ccccc32)c1Nc1ccc(C(C)=O)cc1 |  | inactive: -8.78% |
| Cc1cc(C)c(N=C2SCC(=O)N2Cc2ccco2)c(C)c1 | inconclusive: 7.08 µM [inhibitor, partial curve] |  |
| Cc1cccc(OCc2nc(CC(=O)Nc3ccc(Cl)cc3)cs2)c1 | inconclusive: 8.91 µM [inhibitor, partial curve] |  |
| CCC1CN(C(=O)N2CCC(C(=O)NCCc3ccc(OC)cc3OC)CC2)c2cc(C)ccc2O1 (stereo not given) |  | inactive: -15.9% |
| CC(C)CNC(=O)c1ccccc1Oc1ccccc1 | inconclusive: 11.2 µM [inhibitor, single point] |  |
| Nc1[nH]c(N=NC(=O)c2ccccc2)c2ccccc12 |  | inactive: 11.7% |

| SMILES | Potency | activity change, negative = inhibition |
| --- | --- | --- |
| O=C(CN1CCN(c2ccc(O)cc2)CC1)Nc1cc(S(=O)(=O)N2CCOCC2)ccc1Cl | inconclusive: 0.501 µM [inhibitor, full curve, poor fit] |  |
| O=C(CCn1nc(-c2ccc(Cl)cc2)ccc1=O)N1CCN(c2ccc(F)cc2)CC1 | inconclusive: 12.6 µM [inhibitor, single point] |  |
| O=C(/C=C/c1ccc(Cl)cc1Cl)NCCSCc1ccccc1 | inconclusive: 10 µM [inhibitor, partial curve, poor fit] |  |
| O=C(Nc1ncccc1O)c1ccc(Oc2ccccc2)cc1 |  | inactive: 11.4% |
| Cc1ccccc1CSCC(=O)Nc1ccccc1-c1ccccc1 | inconclusive: 28.2 µM [inhibitor, single point] |  |
| CC(=O)N1CCCC1c1nc2ccccc2n1Cc1ccccc1Cl (stereo not given) |  | inactive: 15.8% |
| Cc1cc(NC(=O)c2sc3ccccc3c2O)no1 | inconclusive: 20 µM [inhibitor, single point] |  |
| COc1ccc2nc3oc(C(=O)N4CCC(C(N)=O)CC4)cc3cc2c1 |  | inactive: 20.6% |
| Cc1ccc(-n2c(Cc3cccc4ccccc34)n[nH]c2=S)c(C)c1 | inconclusive: 11.2 µM [inhibitor, partial curve, poor fit] |  |
| COc1ccc(-c2csc(N(CCCN(C)C)C(=O)c3ccc(F)cc3)n2)cc1 | inconclusive: 3.55 µM [inhibitor, single point] |  |
| O=c1[nH]nc(-c2ccc([N+](=O)[O-])o2)c(=O)[nH]1 |  | inactive: 4.53% |
| Cc1ccc(-c2nc(CS(=O)CC(=O)NC3CCC(C)CC3)c(C)o2)cc1 (stereo not given) | inconclusive: 11.2 µM [inhibitor, partial curve, poor fit] |  |
| Cc1csc(=O)n1CC(=O)OCC(=O)Nc1ccc(F)c(F)c1F |  | inactive: -2.41% |
| CC1(c2ccc(NC(=O)c3ccccc3F)cc2)CC1(Cl)Cl (stereo not given) | inconclusive: 20 µM [inhibitor, single point] |  |
| CC1(NC(=O)CCc2ccccc2)CCN(CCCc2ccccc2)C1=O (stereo not given) |  | inactive: 15% |
| O=C(NCC(c1ccco1)N1CCc2ccccc2C1)c1ccccc1Br (stereo not given) | inconclusive: 11.2 µM [inhibitor, partial curve, poor fit] |  |
| C/C(=C\c1ccccc1)C1NC(=O)c2c(sc3c2CCCC3)N1 (stereo not given) | inconclusive: 15.8 µM [inhibitor, partial curve, poor fit] |  |
| COc1ccccc1N(CC(=O)NC1CCCC1)C(=O)c1oc(C(C)(C)C)cc1C | inconclusive: 11.2 µM [inhibitor, partial curve, poor fit] |  |
| Cc1nc2c(sc(=S)n2Cc2ccco2)c(=O)n1CC(=O)Nc1ccc(F)cc1 |  | inactive: -4.99% |
| O=C(NNC1CC(c2ccccc2)=NN1C(=O)c1ccccc1)c1ccccc1 (stereo not given) |  | inconclusive: -31.1% [inhibitor] [at 7.66 µM] |
| CCOC(=O)C1=NN(c2ccccc2)C2(S1)SC(C(C)=O)=C(C)N2c1ccccc1 (stereo not given) | inconclusive: 2.51 µM [inhibitor, partial curve, poor fit] |  |
